For 1 molecule, binding results are on record in article PMC4933444.

Protein sequences, listed by entry. Tags and fused reporters are not part of them. Lines headed by an entry give the natural chain unless they say otherwise; changes in a name come on top. Residues count along the entry.
UniProt Q00987: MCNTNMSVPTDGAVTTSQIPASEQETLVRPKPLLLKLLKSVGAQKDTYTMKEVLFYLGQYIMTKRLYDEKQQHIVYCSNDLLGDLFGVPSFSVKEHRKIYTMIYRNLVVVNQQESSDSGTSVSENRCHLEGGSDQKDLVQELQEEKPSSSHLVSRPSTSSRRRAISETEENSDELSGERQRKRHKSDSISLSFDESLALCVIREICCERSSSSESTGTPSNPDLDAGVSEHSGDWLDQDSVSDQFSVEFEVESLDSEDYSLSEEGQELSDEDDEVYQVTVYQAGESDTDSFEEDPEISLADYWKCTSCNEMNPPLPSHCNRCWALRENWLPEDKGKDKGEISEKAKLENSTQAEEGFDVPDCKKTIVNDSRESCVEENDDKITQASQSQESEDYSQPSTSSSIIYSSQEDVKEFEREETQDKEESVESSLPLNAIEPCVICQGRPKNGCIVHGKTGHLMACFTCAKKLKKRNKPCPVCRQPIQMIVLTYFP
GST-Mdm2 mutant 237–288: residues 237-288 of Q00987

No constants are given. Whether binding was seen depends on the method and setting. Some results given as binding are weak or reduced against the parent protein; the word gives no strength. Sequences can lack the tags named with a protein.

Assay in all cases: pull-down; GST pull-down: purified GST or GST-tagged proteins on glutathione-Sepharose beads overnight at 4 °C, His-tagged proteins added for 4 h at 4 °C, washed three times, eluted, Western blot; both purified
In general terms: In western blotting, separated proteins are transferred to a membrane and probed.

For experiment [1], the target named is GST-p53 (UniProt P04637).
The target in experiment [2] is GST-p53 mutant 40–92 (UniProt P04637).
Experiment [3] concerns the target GST-Mdm2 mutant 237–288 (UniProt Q00987).
Experiment [4] concerns the target GST-p53 mutant 356–393 (UniProt P04637).
Experiment [5] concerns the target GST-Mdm2 (UniProt Q00987).

B1: His-HBP1 (protein, UniProt O60381 1-514)
chain: MVWEVKTNQMPNAVQKLLLVMDKRASGMNDSLELLQCNENLPSSPGYNSCDEHMELDDLPELQAVQSDPTQSGMYQLSSDVSHQEYPRSSWNQNTSDIPETTYRENEVDWLTELANIATSPQSPLMQCSFYNRSSPVHIIATSKSLHSYARPPPVSSSSKSEPAFPHHHWKEETPVRHERANSESESGIFCMSSLSDDDDLGWCNSWPSTVWHCFLKGTRLCFHKGSNKEWQDVEDFARAEGCDNEEDLQMGIHKGYGSDGLKLLSHEESVSFGESVLKLTFDPGTVEDGLLTVECKLDHPFYVKNKGWSSFYPSLTVVQHGIPCCEVHIGDVCLPPGHPDAINFDDSGVFDTFKSYDFTPMDSSAVYVLSSMARQRRASLSCGGPGGQDFARSGFSKNCGSPGSSQLSSNSLYAKAVKNHSSGTVSATSPNKCKRPMNAFMLFAKKYRVEYTQMYPGKDNRAISVILGDRWKKMKNEERRMYTLEAKALAEEQKRLNPDCWKRKRTNSGSQQH
For B1, the binding entry is “binds” in experiment [1]; “no binding” in experiment [2]; “no binding” in experiment [3]; “no binding” in experiment [4]; “binds” in experiment [5].
